Reference: the supplement of paper PMC4967469
pIC50: −log10 of the molar value. A lower IC50 marks a more sensitive line; a limit (>, <) means that the fit lies beyond the doses tested. AUC sums up the same curve from the lowest dose to the 256-fold higher top dose; the more sensitive the line, the further below 1. Where the top dose is marked as inferred, it was calculated from the reported fits.

What was measured:
Assay in all cases: Viability of human cancer cell lines after 72 h of drug (GDSC screen)
QL-XII-47 = compound: C=CC(=O)N1CCc2ccc(-n3c(=O)ccc4cnc5ccc(-c6cnn(C)c6)cc5c43)cc21 [QL-XII-47]; conditions: top dose 10.24 µM; top dose inferred
Procedure: (§1)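 Human cancer cell lines in 384-well plates, medium with 10% serum, drug for 72 h over a 256-fold dose range (nine 2-fold or five 4-fold steps up to the top dose). Adherent lines were fixed and stained with the nucleic acid dye Syto60, suspension lines read with resazurin; signal relative to control wells, capped at 0 and 100%. One two-parameter sigmoid per drug and line, fitted in a mixed model over all curves with the slope shared within a line.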

KIN001-266 = compound: CCN1CCC(n2cc(CNc3cc(Cl)c4ncc(C#N)c(Nc5ccc(F)c(Cl)c5)c4c3)nn2)CC1 [KIN001-266]; conditions: top dose 20 µM; top dose inferred
Procedure: as §1

BAY 61-3606 = compound: COc1ccc(-c2cc3nccn3c(Nc3ncccc3C(N)=O)n2)cc1OC [BAY 61-3606]; conditions: top dose 8 µM; top dose inferred
Procedure: as §1

CCT007093 = compound: O=C1/C(=C/c2cccs2)CC/C1=C\c1cccs1 [CCT007093]; conditions: top dose 6.6 µM; top dose inferred
Procedure: as §1

Cell Line | AUC (QL-XII-47) | pIC50 (QL-XII-47) | AUC (KIN001-266) | pIC50 (KIN001-266) | AUC (BAY 61-3606) | pIC50 (BAY 61-3606) | AUC (CCT007093) | pIC50 (CCT007093)
KP-2 (pancreas, adherent) | 0.59 | 5.94 | 0.887 | < 4.70 | 0.814 | 5.32 | 0.986 | < 5.18
KP-3 (pancreas, adherent) | 0.68 | 5.65 | 0.933 | < 4.70 | 0.86 | < 5.10 | 0.984 | < 5.18
KP-4 (pancreas, adherent) | 0.414 | 6.43 | 0.985 | < 4.70 | 0.946 | < 5.10 | 0.977 | < 5.18
KS-1 (glioma, adherent) | 0.374 | 6.58 | 0.826 | 4.79 | 0.738 | 5.54 | 0.978 | < 5.18
KU812 (chronic myeloid leukaemia, suspension) | 0.421 | 6.40 | 0.861 | 4.84 | 0.763 | 5.58 | 0.97 | < 5.18
KU-19-19 (bladder, adherent) | 0.957 | < 4.99 | 0.987 | < 4.70 | 0.985 | < 5.10 | 0.981 | < 5.18
KURAMOCHI (ovary, adherent) | 0.795 | 5.25 | 0.923 | < 4.70 | 0.853 | 5.11 | 0.984 | < 5.18
KY821 (leukaemia, suspension) | 0.851 | 5.20 | 0.888 | 4.76 | 0.972 | < 5.10 | 0.98 | < 5.18
KYM-1 (rhabdomyosarcoma, adherent) | 0.991 | < 4.99 | 0.899 | 4.72 | 0.657 | 5.90 | 0.984 | < 5.18
KYSE-50 (oesophagus, adherent) | 0.461 | 6.30 | 0.894 | < 4.70 | 0.806 | 5.44 | 0.96 | < 5.18
KYSE-70 (oesophagus, adherent) | 0.844 | 5.08 | 0.934 | < 4.70 | 0.863 | < 5.10 | 0.968 | < 5.18
KYSE-140 (oesophagus, adherent) | 0.581 | 5.96 | 0.813 | 4.90 | 0.786 | 5.40 | 0.984 | < 5.18
KYSE-150 (oesophagus, adherent) | 0.829 | 5.22 | 0.917 | < 4.70 | 0.846 | 5.26 | 0.978 | < 5.18
KYSE-180 (oesophagus, adherent) | 0.718 | 5.59 | 0.875 | 4.74 | 0.823 | 5.35 | 0.988 | < 5.18
KYSE-220 (oesophagus, adherent) | 0.779 | 5.35 | 0.863 | 4.72 | 0.918 | < 5.10 | 0.946 | < 5.18
KYSE-270 (oesophagus, adherent) | 0.991 | < 4.99 | 0.842 | 4.95 | 0.686 | 5.82 | 0.991 | < 5.18
KYSE-410 (oesophagus, adherent) | 0.536 | 6.09 | 0.975 | < 4.70 | 0.837 | 5.23 | 0.985 | < 5.18
KYSE-450 (oesophagus, adherent) | 0.432 | 6.38 | 0.859 | 4.82 | 0.73 | 5.67 | 0.983 | < 5.18
KYSE-510 (oesophagus, adherent) | 0.924 | < 4.99 | 0.957 | < 4.70 | 0.771 | 5.59 | 0.989 | < 5.18
KYSE-520 (oesophagus, adherent) | 0.599 | 5.88 | 0.931 | < 4.70 | 0.957 | < 5.10 | 0.947 | < 5.18

Cell Line | AUC (QL-XII-47) | pIC50 (QL-XII-47) | AUC (KIN001-266) | pIC50 (KIN001-266) | AUC (BAY 61-3606) | pIC50 (BAY 61-3606) | AUC (CCT007093) | pIC50 (CCT007093)
L-363 (myeloma, suspension) | 0.534 | 6.11 | 0.872 | 4.83 | 0.785 |  | 0.99 | < 5.18
L-428 (Hodgkin lymphoma, suspension) | 0.909 | < 4.99 | 0.94 | < 4.70 | 0.866 | 5.24 | 0.992 | < 5.18
L-540 (Hodgkin lymphoma, suspension) | 0.839 | 5.23 | 0.867 | 4.83 | 0.922 | < 5.10 | 0.99 | < 5.18
L-1236 (Hodgkin lymphoma, suspension) | 0.973 | < 4.99 | 0.889 | 4.78 | 0.98 | < 5.10 | 0.99 | < 5.18
LAMA-84 (chronic myeloid leukaemia, suspension) | 0.555 | 6.04 | 0.819 | 4.94 | 0.91 | < 5.10 | 0.969 | < 5.18
LAN-6 (neuroblastoma, adherent) | 0.39 | 6.52 | 0.892 | < 4.70 | 0.868 | < 5.10 | 0.973 | < 5.18
LB373-MEL-D (melanoma, adherent) | 0.975 | < 4.99 | 0.871 | 4.74 | 0.925 | < 5.10 | 0.99 | < 5.18
LB771-HNC (head and neck, adherent) | 0.747 | 5.40 | 0.884 | < 4.70 | 0.864 | < 5.10 | 0.962 | < 5.18
LB831-BLC (bladder, adherent) | 0.671 | 5.71 | 0.873 | 4.70 | 0.58 | 6.08 | 0.982 | < 5.18
LB996-RCC (kidney, adherent) | 0.982 | < 4.99 | 0.98 | < 4.70 | 0.68 | 5.76 | 0.874 | < 5.18
LB1047-RCC (kidney, adherent) | 0.624 | 5.83 | 0.879 | < 4.70 | 0.557 | 6.14 | 0.981 | < 5.18
LB2241-RCC (kidney, adherent) | 0.984 | < 4.99 | 0.965 | < 4.70 | 0.796 | 5.37 | 0.975 | < 5.18
LB2518-MEL (melanoma, adherent) | 0.987 | < 4.99 | 0.962 | < 4.70 | 0.907 | < 5.10 | 0.987 | < 5.18
LC4-1 (lymphoblastic leukaemia, suspension) | 0.638 | 5.79 | 0.845 | 4.77 | 0.821 | 5.28 | 0.979 | < 5.18
LC-1-sq (lung squamous cell carcinoma, adherent) | 0.933 | < 4.99 | 0.983 | < 4.70 | 0.961 | < 5.10 | 0.969 | < 5.18
LC-2-ad (lung adenocarcinoma, adherent) | 0.847 | 5.11 | 0.852 | 4.79 | 0.691 | 5.76 | 0.984 | < 5.18
LCLC-103H (large cell lung carcinoma, adherent) | 0.806 | 5.33 | 0.877 | 4.77 | 0.771 | 5.56 | 0.99 | < 5.18
LK-2 (lung squamous cell carcinoma, adherent) | 0.966 | < 4.99 | 0.866 | 4.79 | 0.925 | < 5.10 | 0.982 | < 5.18
LN-18 (glioma, adherent) | 0.967 | < 4.99 | 0.915 | 4.71 | 0.928 | < 5.10 | 0.994 | < 5.18
LN-229 (glioma, adherent) | 0.909 | < 4.99 | 0.984 | < 4.70 | 0.916 | < 5.10 | 0.985 | < 5.18

Cell Line | AUC (QL-XII-47) | pIC50 (QL-XII-47) | AUC (KIN001-266) | pIC50 (KIN001-266) | AUC (BAY 61-3606) | pIC50 (BAY 61-3606) | AUC (CCT007093) | pIC50 (CCT007093)
LN-405 (glioma, adherent) | 0.77 | 5.31 | 0.854 | < 4.70 | 0.95 | < 5.10 | 0.911 | < 5.18
LNCaP-Clone-FGC (prostate, adherent) | 0.408 | 6.46 | 0.885 | < 4.70 | 0.738 | 5.57 | 0.982 | < 5.18
LNZTA3WT4 (glioma, adherent) | 0.963 | < 4.99 | 0.981 | < 4.70 | 0.942 | < 5.10 | 0.989 | < 5.18
LOU-NH91 (lung squamous cell carcinoma, adherent) | 0.888 | < 4.99 | 0.95 | < 4.70 | 0.916 | < 5.10 | 0.982 | < 5.18
LOUCY (T-cell lymphoblastic leukaemia, suspension) | 0.402 | 6.44 | 0.891 | 4.80 | 0.816 | 5.46 | 0.959 | < 5.18
LOXIMVI (melanoma, semi-adherent) | 0.764 | 5.48 | 0.893 | 4.71 | 0.771 | 5.56 | 0.989 | < 5.18
LP-1 (myeloma, suspension) | 0.398 | 6.45 | 0.88 | 4.83 | 0.831 | 5.41 | 0.992 | < 5.18
LS-123 (large intestine, adherent) | 0.734 | 5.42 | 0.834 | 4.71 | 0.868 | < 5.10 | 0.963 | < 5.18
LS-180 (large intestine, adherent) | 0.857 | < 4.99 | 0.929 | < 4.70 | 0.768 | 5.47 | 0.984 | < 5.18
LS-411N (large intestine, adherent) | 0.595 | 5.91 | 0.867 | < 4.70 | 0.767 | 5.44 | 0.974 | < 5.18
LS-513 (large intestine, adherent) | 0.759 | 5.43 | 0.79 | 5.03 | 0.902 | < 5.10 | 0.987 | < 5.18
LS-1034 (large intestine, adherent) | 0.646 | 5.77 | 0.747 | 5.16 | 0.88 | < 5.10 | 0.986 | < 5.18
LU-65 (large cell lung carcinoma, suspension) | 0.827 | 5.11 | 0.863 | < 4.70 | 0.709 | 5.66 | 0.987 | < 5.18
LU-99A (large cell lung carcinoma, adherent) | 0.863 | 5.06 | 0.861 | 4.78 | 0.839 | 5.27 | 0.987 | < 5.18
LU-134-A (small cell lung carcinoma, suspension) | 0.558 | 6.03 | 0.91 | < 4.70 | 0.828 | 5.27 | 0.986 | < 5.18
LU-135 (small cell lung carcinoma, suspension) | 0.874 | 5.15 | 0.843 | 4.97 | 0.786 | 5.55 | 0.991 | < 5.18
LU-139 (small cell lung carcinoma, suspension) | 0.306 | 6.81 | 0.858 | < 4.70 | 0.945 | < 5.10 | 0.921 | < 5.18
LU-165 (small cell lung carcinoma, suspension) | 0.491 | 6.22 | 0.966 | < 4.70 | 0.869 | < 5.10 | 0.987 | < 5.18
LXF-289 (lung adenocarcinoma, adherent) | 0.687 | 5.67 | 0.873 | 4.73 | 0.881 | < 5.10 | 0.986 | < 5.18
M14 (melanoma, adherent) | 0.985 | < 4.99 | 0.867 | 4.70 | 0.962 | < 5.10 | 0.983 | < 5.18
